The values that follow come from PMC4336329 (PLoS ONE, 2015).

In all, about 310,000 compounds went through this assay and about 2,200 (0.71%) showed an effect of 50% or more. Effects have a minus sign here. Some of the results follow.

The target of this experiment is human ether-à-go-go-related gene (hERG) potassium channel (human, UniProt Q12809). Put plainly: primary screen, population patch clamp on CHO cells stably expressing hERG.
human ether-à-go-go-related gene (hERG) potassium channel, sequence (Q12809 whole entry, looked up): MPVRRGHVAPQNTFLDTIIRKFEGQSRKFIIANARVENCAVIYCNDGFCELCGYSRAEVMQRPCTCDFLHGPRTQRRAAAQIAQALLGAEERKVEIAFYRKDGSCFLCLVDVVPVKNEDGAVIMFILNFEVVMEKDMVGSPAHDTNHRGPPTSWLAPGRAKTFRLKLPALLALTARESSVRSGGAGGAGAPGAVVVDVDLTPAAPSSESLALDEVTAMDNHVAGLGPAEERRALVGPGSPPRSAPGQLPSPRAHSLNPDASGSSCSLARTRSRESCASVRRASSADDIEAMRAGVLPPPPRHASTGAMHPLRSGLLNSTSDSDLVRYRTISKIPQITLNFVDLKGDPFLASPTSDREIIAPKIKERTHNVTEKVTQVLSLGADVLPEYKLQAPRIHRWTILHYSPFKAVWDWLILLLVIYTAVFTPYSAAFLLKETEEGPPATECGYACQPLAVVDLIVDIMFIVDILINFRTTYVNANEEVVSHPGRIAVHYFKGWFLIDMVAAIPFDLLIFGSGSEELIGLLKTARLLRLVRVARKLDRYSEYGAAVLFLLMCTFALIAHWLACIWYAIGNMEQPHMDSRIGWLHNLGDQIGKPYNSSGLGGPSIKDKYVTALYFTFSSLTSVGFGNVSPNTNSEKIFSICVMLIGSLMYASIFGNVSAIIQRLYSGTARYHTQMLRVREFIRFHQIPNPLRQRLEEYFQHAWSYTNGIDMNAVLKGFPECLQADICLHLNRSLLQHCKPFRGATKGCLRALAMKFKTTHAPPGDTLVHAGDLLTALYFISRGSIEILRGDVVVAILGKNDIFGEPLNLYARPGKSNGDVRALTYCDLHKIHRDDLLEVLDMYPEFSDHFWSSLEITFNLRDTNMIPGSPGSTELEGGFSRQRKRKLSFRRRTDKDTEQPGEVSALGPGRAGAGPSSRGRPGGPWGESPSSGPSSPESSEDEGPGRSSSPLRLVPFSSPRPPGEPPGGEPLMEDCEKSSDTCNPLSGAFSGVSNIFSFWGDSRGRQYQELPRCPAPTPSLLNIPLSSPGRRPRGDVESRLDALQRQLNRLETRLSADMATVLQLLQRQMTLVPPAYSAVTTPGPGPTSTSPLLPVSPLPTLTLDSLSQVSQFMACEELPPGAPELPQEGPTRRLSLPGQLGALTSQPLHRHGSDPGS
As for `COc1ccc(C2CC(c3ccccc3)=NN2c2ccc(S(N)(=O)=O)cc2)cc1` (stereo not shown), the “hERG current change (%, negative = inhibition) at 1uM” value came out at 13.9%.

On to `COc1ccc(CCNCc2ccc(OC)c(OC)c2OC)cc1`, for which the “hERG current change (%, negative = inhibition) at 1uM” value was 1.48%.

With `COC(=O)COc1cccc(NS(=O)(=O)c2ccc(NC(C)=O)cc2)c1`, the “hERG current change (%, negative = inhibition) at 1uM” value turned out to be 14.8%.

Take `Cc1ccsc1C(=O)Nc1ccc(F)c([N+](=O)[O-])c1`: the “hERG current change (%, negative = inhibition) at 1uM” value was 10.9%.

On to `COc1cc(/C=C/C(=O)c2ccc([N+](=O)[O-])o2)ccc1O`, for which the “hERG current change (%, negative = inhibition) at 1uM” value is reported as 16.4%.

`COc1cccc(CN2CC(C(=O)NCCC3=CCCCC3)CCC2=O)c1` (stereo not shown): the “hERG current change (%, negative = inhibition) at 1uM” value is -1.22%.

In the case of `C(=C\n1nnc2ccccc21)/c1ccccn1`, the “hERG current change (%, negative = inhibition) at 1uM” value was found to be 12.3%.

Consider `COc1ccccc1N1CCN(S(=O)(=O)CCNC(=O)C2CCCCC2)CC1`, for which the “hERG current change (%, negative = inhibition) at 1uM” value was 1.78%.

As for `CC1S/C(=N/N=C/c2ccco2)N(Cc2ccccc2)C1=O` (stereo not shown), the “hERG current change (%, negative = inhibition) at 1uM” value came to 13.1%.

Regarding `O=C1NC2(CCCCC2)C(=O)N1/N=C/c1ccc(O)cc1O`, the “hERG current change (%, negative = inhibition) at 1uM” value is listed as -0.395%.

As to `O=C1C(C=Nc2ccccc2O)=C(O)c2ccccc21`, the “hERG current change (%, negative = inhibition) at 1uM” value came to 8.45%.

As to `COc1ccc(NC(=S)NCCN2CCC(C)CC2)cc1Cl`, the “hERG current change (%, negative = inhibition) at 1uM” value is given as 25.3%.

Consider `Cc1sc(/N=C/c2c(O)ccc3ccccc23)c(C#N)c1C`, for which the “hERG current change (%, negative = inhibition) at 1uM” value was 17.9%.

Regarding `CC(OC(=O)C1=COCCO1)C(=O)Nc1ccccc1C#N` (stereo not shown), the “hERG current change (%, negative = inhibition) at 1uM” value is reported as 10.1%.

In the case of `CC(NS(=O)(=O)c1ccccc1)C(=O)NCCc1ccccn1` (stereo not shown), the “hERG current change (%, negative = inhibition) at 1uM” value came out at 5.82%.

In the case of `N#Cc1nc(-c2ccc(F)cc2)oc1NCCCn1ccnc1`, the “hERG current change (%, negative = inhibition) at 1uM” value is given as -21.9%.

For the compound `O=C(Nc1nnc(C2CC2)s1)c1cccc(S(=O)(=O)N2CC(c3ccccc3)CC2=O)c1` (stereo not shown), the “hERG current change (%, negative = inhibition) at 1uM” value is 2.33%.

For `CC(=O)Nc1ccc(OCC(O)Cn2c(CO)nc3ccccc32)cc1` (stereo not shown), the “hERG current change (%, negative = inhibition) at 1uM” value is on record as 10.9%.

Consider `O=C(CCC(=O)OCC(=O)c1ccc(-c2ccccc2)cc1)Nc1cccc(Cl)c1`, for which the “hERG current change (%, negative = inhibition) at 1uM” value came out at 1.42%.

`COc1ccc(C(=O)CSc2nc3cccnc3n2C)cc1`: the “hERG current change (%, negative = inhibition) at 1uM” value is listed as 8.75%.

As for `CC(=O)NCc1ccc(C(=O)COC(=O)COc2ccccc2)s1`, the “hERG current change (%, negative = inhibition) at 1uM” value came to 10.8%.

As for `CCC1(C)Cc2c(sc3nc(SCC(=O)c4ccccc4)[nH]c(=O)c23)CO1` (stereo not shown), the “hERG current change (%, negative = inhibition) at 1uM” value was 4.26%.

Regarding `COc1ccc(Oc2nc3ccccc3n(C)c2=O)cc1`, the “hERG current change (%, negative = inhibition) at 1uM” value is -7.95%.

In the case of `COc1ccccc1Cn1c(=S)[nH]c2cc(C(=O)NCc3cccnc3)ccc2c1=O`, the “hERG current change (%, negative = inhibition) at 1uM” value came to 12.9%.

As to `COc1cccc(C(=O)OCC(=O)Nc2sc3c(c2C(N)=O)CCC3)c1O`, the “hERG current change (%, negative = inhibition) at 1uM” value was found to be 10.7%.

Regarding `O=C1C(c2ccc(F)cc2)N(Cc2ccc3c(c2)OCO3)C(=O)CN1C1CCCCCC1` (stereo not shown), the “hERG current change (%, negative = inhibition) at 1uM” value is reported as -9.14%.

As for `c1ccc(-c2noc(COc3ccc4c(c3)OCO4)n2)cc1`, the “hERG current change (%, negative = inhibition) at 1uM” value came to 14.9%.

With `Nc1c(C(=O)Nc2ccccc2)c2nc3ccccc3nc2n1-c1ccc(O)cc1`, the “hERG current change (%, negative = inhibition) at 1uM” value was 10.8%.

In the case of `Cc1cc2ncn(C(=O)N3CCOCC3)c2cc1C`, the “hERG current change (%, negative = inhibition) at 1uM” value was 14.7%.

Turning to `C/C(=N\NC(=O)c1cc(-c2ccccn2)nc2ccccc12)c1cccc([N+](=O)[O-])c1`, the “hERG current change (%, negative = inhibition) at 1uM” value was 2.45%.

Turning to `CCc1cc(C(=O)OC)c(NC(=O)CC2Nc3cc(C)c(C)cc3NC2=O)s1` (stereo not shown), the “hERG current change (%, negative = inhibition) at 1uM” value amounted to 11%.

Consider `Cc1ccc(CN(Cc2ccco2)C(=S)Nc2ccccc2C)cc1`, for which the “hERG current change (%, negative = inhibition) at 1uM” value came out at 7.75%.

Take `COCCNC(=S)NNC(=O)c1cc(C2CC2)nc2ccccc12`: the “hERG current change (%, negative = inhibition) at 1uM” value is on record as 14.8%.

Take `COC(=O)c1c(NC(=O)c2cccc([N+](=O)[O-])c2)sc(C(N)=O)c1C`: the “hERG current change (%, negative = inhibition) at 1uM” value worked out at 9.93%.

`O=S(=O)(c1ccccc1F)N1CCCc2ccccc21`: the “hERG current change (%, negative = inhibition) at 1uM” value is given as 12.1%.

Take `O=C(NC(=S)Nc1ccccc1N1CCOCC1)c1ccc(Br)cc1`: the “hERG current change (%, negative = inhibition) at 1uM” value came out at 10.9%.

As for `Cn1c(C(O)c2ccccc2F)nc(Cl)c1Cl` (stereo not shown), the “hERG current change (%, negative = inhibition) at 1uM” value worked out at 10.4%.

As to `CC(=O)NNS(=O)(=O)c1ccccc1[N+](=O)[O-]`, the “hERG current change (%, negative = inhibition) at 1uM” value is reported as 5.24%.

Take `Cn1nc(NC(=O)C(F)(F)F)c2ncc(-c3ccc(Cl)cc3)nc21`: the “hERG current change (%, negative = inhibition) at 1uM” value is on record as 14.4%.

As for `C/C=C/Cn1c(SC)nc2c1c(=O)[nH]c(=O)n2C`, the “hERG current change (%, negative = inhibition) at 1uM” value is 2.51%.

On to `CNC(=O)NC(=O)C(C)OC(=O)c1c2c(nc3ccccc13)/C(=C/c1cccs1)CC2` (stereo not shown), for which the “hERG current change (%, negative = inhibition) at 1uM” value is 0.0128%.

For `COc1cc(CN2CCCN(C)CC2)c([N+](=O)[O-])cc1OC`, the “hERG current change (%, negative = inhibition) at 1uM” value worked out at 8.99%.

For the compound `CCOCCCNC(=O)CCCC1=NS(=O)(=O)c2ccccc2N1`, the “hERG current change (%, negative = inhibition) at 1uM” value was 1.78%.

On to `COc1ccccc1CN1CCNC(=O)C1CC(=O)NC1CCCCCC1` (stereo not shown), for which the “hERG current change (%, negative = inhibition) at 1uM” value was determined as 6.62%.

On to `Cc1ccc(SCCN2CCC(NC(=O)OCc3ccccc3)CCC2=O)cc1` (stereo not shown), for which the “hERG current change (%, negative = inhibition) at 1uM” value was -4.91%.

For `Cc1ccc(S(=O)(=O)N2CCN(C(=O)CN3C(=O)c4ccccc4C3=O)CC2)c(C)c1`, the “hERG current change (%, negative = inhibition) at 1uM” value was found to be 10.1%.

In the case of `COC(=O)Sc1nnc(-c2ccc(Br)cc2)o1`, the “hERG current change (%, negative = inhibition) at 1uM” value was found to be 12.1%.

Regarding `COC(=O)CCSCC(=O)Nc1nnc(C)s1`, the “hERG current change (%, negative = inhibition) at 1uM” value was found to be 7.19%.

As for `CC1CCN(C(=O)C2(NC(=O)Nc3cccc(F)c3)CCCCC2)CC1`, the “hERG current change (%, negative = inhibition) at 1uM” value stood at 11.7%.

Turning to `CN(C)S(=O)(=O)c1ccc(S(=O)(=O)NC2CCOC(C)(C)C2)cc1` (stereo not shown), the “hERG current change (%, negative = inhibition) at 1uM” value worked out at 6.09%.

With `O=C(Nc1ccc(Cl)cc1)c1cccc(NC2=NC3CS(=O)(=O)CC3S2)c1` (stereo not shown), the “hERG current change (%, negative = inhibition) at 1uM” value is recorded as -0.35%.

As to `CCc1ccc(NC(=O)[C@@H](NC(=O)[C@@H]2Cc3ccccc3CN2)C(C)CC)cc1` (stereo partly shown), the “hERG current change (%, negative = inhibition) at 1uM” value was 17.3%.

With `Cc1ccc(C(C(=O)Nc2ccc3c(c2)OCO3)N(C)C(=O)/C=C\c2ccc3c(c2)OCO3)cc1` (stereo not shown), the “hERG current change (%, negative = inhibition) at 1uM” value came to 12.3%.

Consider `COc1ccccc1COC(=O)c1ccc(S(=O)(=O)N2CCOCC2)cc1`, for which the “hERG current change (%, negative = inhibition) at 1uM” value came out at 13.1%.

Take `Cc1nn(C)cc1NC(=O)c1ccc(Br)o1`: the “hERG current change (%, negative = inhibition) at 1uM” value was 11.8%.

As for `N#Cc1nc(Cc2ccccc2)oc1NCCCn1ccnc1`, the “hERG current change (%, negative = inhibition) at 1uM” value is recorded as 2.33%.

As to `COc1ccc(CCNc2oc(-c3ccc(OC)c(OC)c3)nc2C#N)cc1`, the “hERG current change (%, negative = inhibition) at 1uM” value was determined as 17.2%.

For `CCC1(CC)C(=O)C2=C3C1[C@H](C(=O)OC)C=C(C(=O)OC)C[C@H]3[C@H]1C(=O)NC(=O)[C@H]1[C@H]2C` (stereo partly shown), the “hERG current change (%, negative = inhibition) at 1uM” value amounted to 8.51%.
